The list shows a part of the results.
B1: PhoQ; a variant is named by its letters at X, in order, P23837 (parent)
chain: MKKLLRLFFPLSLRVRFLLATAAVVLVLSLAYGMVALIGYSVSFDKTTFRLLRGESNLFYTLAKWENNKLHVELPENIDKQSPTMTLIYDENGQLLWAQRDVPWLMKMIQPDWLKSNGFHEIEADVNDTSLLLSGDHSIQQQLQEVREDDDDAEMTHSVAVNVYPATSRMPKLTIVVVDTIPVELKSSYMVWSWFIYVLSANLLLVIPLLWVAAWWSLRPIEALAKEVRELEEHNRELLNPATTRELTSLVRNLNRLLKSERERYDKYRTTLTDLTHSLKTPLXXLQXXLRSLRSEKMSVSDAEPVMLEQISRISQQIGYYLHRASMRGGTLLSRELHPVAPLLDNLTSALNKVYQRKGVNISLDISPEISFVGEQNDFVEVMGNVLDNACKYCLEFVEISARQTDEHLYIVVEDDGPGIPLSKREVIFDRGQRVDTLRPGQGVGLAVAREITEQYEGKIVAGESMLGGARMEVIFGRQHSAPKDE

Variants of: B1
Assay: enrichment ratio after two sorts for PhoP signalling (ratio (wild type AVST 3.29)); higher = more functional
Conditions: with PhoP (E. coli)

CCAN and WYMH cannot be ordered by enrichment ratio: no more than 0.25 for the first, no more than 0.25 for the second.

Compared with TDNG, VEMG is higher in enrichment ratio: 4.17 for the first, 6.39 for the second.

RQIM and EEFI cannot be ordered by enrichment ratio: no more than 0.25 for the first, no more than 0.25 for the second.

TDEA and IRQG cannot be ordered by enrichment ratio: no more than 0.25 for the first, no more than 0.25 for the second.

EVID and MTRH cannot be ordered by enrichment ratio: no more than 0.25 for the first, no more than 0.25 for the second.

Going from YPEN to TTHA, the enrichment ratio rises from no more than 0.25 to 2.81.

PPMM and KRNH cannot be ordered by enrichment ratio: no more than 0.25 for the first, no more than 0.25 for the second.

PLDQ and GRVY cannot be ordered by enrichment ratio: no more than 0.25 for the first, no more than 0.25 for the second.

DVCA and PYKT cannot be ordered by enrichment ratio: no more than 0.25 for the first, no more than 0.25 for the second.

WMNG and DTCR cannot be ordered by enrichment ratio: no more than 0.25 for the first, no more than 0.25 for the second.

AHAR and AKHW cannot be ordered by enrichment ratio: no more than 0.25 for the first, no more than 0.25 for the second.

LCRH and MIRD cannot be ordered by enrichment ratio: no more than 0.25 for the first, no more than 0.25 for the second.

LGCK and HVPR cannot be ordered by enrichment ratio: no more than 0.25 for the first, no more than 0.25 for the second.

LQPG and QIMG cannot be ordered by enrichment ratio: no more than 0.25 for the first, no more than 0.25 for the second.

MKAP and VMIV cannot be ordered by enrichment ratio: no more than 0.25 for the first, no more than 0.25 for the second.

YDHN and PWAF cannot be ordered by enrichment ratio: no more than 0.25 for the first, no more than 0.25 for the second.

VMSD and YDFT cannot be ordered by enrichment ratio: no more than 0.25 for the first, no more than 0.25 for the second.

KCRP and KYIK cannot be ordered by enrichment ratio: no more than 0.25 for the first, no more than 0.25 for the second.

TEPK and GTRT cannot be ordered by enrichment ratio: no more than 0.25 for the first, no more than 0.25 for the second.

LYDP and SMDV cannot be ordered by enrichment ratio: no more than 0.25 for the first, no more than 0.25 for the second.

PRES and VRTV cannot be ordered by enrichment ratio: no more than 0.25 for the first, no more than 0.25 for the second.

First: SHMF
Second: RCPP
The enrichment ratio of the first is higher: 8.93 for the first, no more than 0.25 for the second.

MFYC and VYSR cannot be ordered by enrichment ratio: no more than 0.25 for the first, no more than 0.25 for the second.

KAMN and HQFA cannot be ordered by enrichment ratio: no more than 0.25 for the first, no more than 0.25 for the second.

First: HTDI
Second: MCTL
The enrichment ratio of the first is lower: no more than 0.25 for the first, 10.9 for the second.

Going from AVAS to VFAL, the enrichment ratio falls from 4.33 to no more than 0.25.

YMWE and HIWI cannot be ordered by enrichment ratio: no more than 0.25 for the first, no more than 0.25 for the second.

KYNP and NRKP cannot be ordered by enrichment ratio: no more than 0.25 for the first, no more than 0.25 for the second.

PIHS and LPKM cannot be ordered by enrichment ratio: no more than 0.25 for the first, no more than 0.25 for the second.

RKKL and NGFW cannot be ordered by enrichment ratio: no more than 0.25 for the first, no more than 0.25 for the second.

RIRF and QMVK cannot be ordered by enrichment ratio: no more than 0.25 for the first, no more than 0.25 for the second.

RYSK and ILYA cannot be ordered by enrichment ratio: no more than 0.25 for the first, no more than 0.25 for the second.

PFFA and IFQY cannot be ordered by enrichment ratio: no more than 0.25 for the first, no more than 0.25 for the second.

YAQV and VYTA cannot be ordered by enrichment ratio: no more than 0.25 for the first, no more than 0.25 for the second.

HVRT and WGYG cannot be ordered by enrichment ratio: no more than 0.25 for the first, no more than 0.25 for the second.

TFTK and GRYY cannot be ordered by enrichment ratio: no more than 0.25 for the first, no more than 0.25 for the second.

PLSW and WLSM cannot be ordered by enrichment ratio: no more than 0.25 for the first, no more than 0.25 for the second.

EGGW and WCVR cannot be ordered by enrichment ratio: no more than 0.25 for the first, no more than 0.25 for the second.

FKMH and YETN cannot be ordered by enrichment ratio: no more than 0.25 for the first, no more than 0.25 for the second.

MPMV and HSLT cannot be ordered by enrichment ratio: no more than 0.25 for the first, no more than 0.25 for the second.

FIMR and KYEK cannot be ordered by enrichment ratio: no more than 0.25 for the first, no more than 0.25 for the second.

KNCA and LMGF cannot be ordered by enrichment ratio: no more than 0.25 for the first, no more than 0.25 for the second.

Compared with ASLN, MYKE is lower in enrichment ratio: 9.05 for the first, no more than 0.25 for the second.

YRQI and LLTH cannot be ordered by enrichment ratio: no more than 0.25 for the first, no more than 0.25 for the second.

YDYW and RRGF cannot be ordered by enrichment ratio: no more than 0.25 for the first, no more than 0.25 for the second.

IHDN and AANM cannot be ordered by enrichment ratio: no more than 0.25 for the first, no more than 0.25 for the second.

YPYI and RYFQ cannot be ordered by enrichment ratio: no more than 0.25 for the first, no more than 0.25 for the second.

RILL and QNGR cannot be ordered by enrichment ratio: no more than 0.25 for the first, no more than 0.25 for the second.

Compared with HHDP, TRLD is higher in enrichment ratio: no more than 0.25 for the first, 5.48 for the second.

FFFN and PMTD cannot be ordered by enrichment ratio: no more than 0.25 for the first, no more than 0.25 for the second.

VKDC and EIGK cannot be ordered by enrichment ratio: no more than 0.25 for the first, no more than 0.25 for the second.

SHPY and RLTH cannot be ordered by enrichment ratio: no more than 0.25 for the first, no more than 0.25 for the second.

GKYK and QFKE cannot be ordered by enrichment ratio: no more than 0.25 for the first, no more than 0.25 for the second.

MAFR and GIWT cannot be ordered by enrichment ratio: no more than 0.25 for the first, no more than 0.25 for the second.

RSKW and WGDH cannot be ordered by enrichment ratio: no more than 0.25 for the first, no more than 0.25 for the second.

LYQY and KMPP cannot be ordered by enrichment ratio: no more than 0.25 for the first, no more than 0.25 for the second.

First: TDLN
Second: YRQG
The enrichment ratio of the first is higher: 14.9 for the first, no more than 0.25 for the second.

FNIE and FHGE cannot be ordered by enrichment ratio: no more than 0.25 for the first, no more than 0.25 for the second.

VIMP and WEVQ cannot be ordered by enrichment ratio: no more than 0.25 for the first, no more than 0.25 for the second.

WIRT and DMCA cannot be ordered by enrichment ratio: no more than 0.25 for the first, no more than 0.25 for the second.

VHQM and WPMT cannot be ordered by enrichment ratio: no more than 0.25 for the first, no more than 0.25 for the second.

WTDR and LGEN cannot be ordered by enrichment ratio: no more than 0.25 for the first, no more than 0.25 for the second.

DQFL and VITA cannot be ordered by enrichment ratio: no more than 0.25 for the first, no more than 0.25 for the second.

Going from PQQL to NLII, the enrichment ratio falls from 1.38 to no more than 0.25.

GEHT and NVCI cannot be ordered by enrichment ratio: no more than 0.25 for the first, no more than 0.25 for the second.

WVRK and RKLG cannot be ordered by enrichment ratio: no more than 0.25 for the first, no more than 0.25 for the second.

QNQG and GRRK cannot be ordered by enrichment ratio: no more than 0.25 for the first, no more than 0.25 for the second.

HMNG and THHA cannot be ordered by enrichment ratio: no more than 0.25 for the first, no more than 0.25 for the second.

KPGI and TRIV cannot be ordered by enrichment ratio: no more than 0.25 for the first, no more than 0.25 for the second.

LRNA and HPIL cannot be ordered by enrichment ratio: no more than 0.25 for the first, no more than 0.25 for the second.

PVGI and QYMH cannot be ordered by enrichment ratio: no more than 0.25 for the first, no more than 0.25 for the second.

HDTF and GLSR cannot be ordered by enrichment ratio: no more than 0.25 for the first, no more than 0.25 for the second.

KMKC and QFIW cannot be ordered by enrichment ratio: no more than 0.25 for the first, no more than 0.25 for the second.

IAYA and HWVD cannot be ordered by enrichment ratio: no more than 0.25 for the first, no more than 0.25 for the second.

First: NQAE
Second: TCRI
The enrichment ratio of the first is lower: no more than 0.25 for the first, 8.19 for the second.

RPVW and TYLF cannot be ordered by enrichment ratio: no more than 0.25 for the first, no more than 0.25 for the second.

For LLSP, the enrichment ratio was no more than 0.25.
